Data reported in PubChem BioAssay AID1865 (National Center for Advancing Translational Sciences (NCATS), 2009).
The whole screen tested about 280,000 compounds, of which about 540 (0.19%) were called active. This list was built around the results that the source calls inconclusive (neither active nor inactive); the mix of calls is not that of the screen. Calls follow the shape of the dose curve; as a rule, active = well fitted activation curve with a large enough effect; inconclusive = small, poorly fitted or top-dose-only effect; inactive = flat fitted curve, though single readings scatter. Where the call is inconclusive, the potency comes from a doubtful curve fit.

Assay: Quantitative High-Throughput Screen for Regulators of Epigenetic Control; also: nearly all actives have a fitted effect of over 60% in size; as to GFP activation: % of control where 0% means no effect
Details: murine LDR cells, GFP reporter derepression, 30 h; GFP activation: at 53.9 µM (top of the series)
Procedure, shortened: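 Derepression of a silenced CMV-GFP reporter in murine LDR cells is scored by enumerating GFP-positive cells with a laser-scanning microplate cytometer after 30 hours of treatment at 37 C.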
Potency is read from the fitted curve at half-maximal effect; tags tell the direction and shape of the fitted curve.

Structure (SMILES)	GFP activation	Potency
C=C1c2cccc(OC)c2O[C@H](C(=O)OCC)[C@@H]1CCC(C)C	inactive: 0.673%	
COc1cc(CNCCc2ccccc2)cc(Cl)c1OCc1ccccc1		inconclusive: 35.5 µM [activator, single point]
COc1ccccc1CNC(=O)c1ccc(Nc2nc3ccccc3n3nnnc23)cc1		inconclusive: 7.94 µM [activator, partial curve]
O=C1/C(=C/c2ccc(N3CCCC3)cc2)NC(=S)N1C1CC1		active: 17.8 µM
Cc1ccc(CNC(=O)c2ccc3c(c2)NC(=O)C(CS(=O)(=O)Cc2ccc(F)cc2)N3)cc1 (configuration not stated)		inconclusive: 31.6 µM [activator, single point]
Cc1onc(-c2ccccc2)c1C(=O)Nc1sc2c(c1C(N)=O)CCC2	inactive: 0%	
CCCCNC(=O)COC(=O)c1ccc(Cl)c(S(=O)(=O)N2CCCC2)c1		inconclusive: 0.1 µM [activator, full curve, poor fit]
Cc1ccc(NC(=S)NCc2ccccn2)cc1	inactive: -0.943%	
Cn1c(-c2csc(-c3cccc(C(F)(F)F)c3)n2)n[nH]c1=S	inactive: 1.14%	
CNC(=O)/C=C1\NC(C)(C)Cc2ccccc21		inconclusive: 35.5 µM [activator, single point]
CCN1c2ccccc2NC2C1C(C(C)=O)C(=O)N2c1ccc(Cl)cc1 (configuration not stated)		active: 25.1 µM
Cc1cccc(NC(=O)c2ccc(NCC3CCCO3)c([N+](=O)[O-])c2)c1 (configuration not stated)		inconclusive: 22.4 µM [activator, single point]
CCN(CC)c1ccc(/C=C2\SC(=O)N(C(C)C)C2=O)o1		active: 7.08 µM
O=C(Nc1ccccn1)c1cc(-c2cccnc2)nc2ccc(Br)cc12		inconclusive: 31.6 µM [activator, single point]
C=C1C(=O)C=C[C@]2(C)C[C@@H]3OC(=O)[C@](C)(O)[C@H]3C[C@@H]12		inconclusive: 5.01 µM [activator, single point]
COc1ccc2[nH]cc(CCN=C(NC(=O)c3cccc(Cl)c3)Nc3nc(C)cc(C)n3)c2c1	inactive: -0.0114%	
CC[n+]1c(/C=C/C=C/N(C(C)=O)c2ccccc2)sc2cc(OC)ccc21		inconclusive: 28.2 µM [activator, single point]
CCOc1ccc(NC(=O)Cn2cc(S(=O)(=O)c3ccc(C)cc3)c(=O)c3cc(F)ccc32)cc1		inconclusive: 35.5 µM [activator, single point]
CN1CCN(c2oc(COc3ccc(-c4ccccc4)cc3)nc2C#N)CC1	inactive: -2.06%	
CCOC(=O)C[n+]1c(C)sc2ccc(OC)cc21		inconclusive: 35.5 µM [activator, single point]
Cc1cc(=O)oc2cc(OC(C)C(=O)NCC3CCCO3)ccc12 (configuration not stated)		inconclusive: 5.62 µM [activator, single point]
Cc1sc(N)nc1-c1ccccc1		inconclusive: 20 µM [activator, single point]
c1cnc2c(SCc3ccc(-c4nnco4)cc3)cccc2c1		inconclusive: 28.2 µM [activator, single point]
Cc1nc(NC(=O)CCl)sc1C(=O)N(C)C	inactive: -1.56%	

Structure (SMILES)	GFP activation	Potency
CCOc1ccc(C(=O)Nc2ccccc2NC(C)=O)cc1OCC		inconclusive: 6.31 µM [activator, single point]
COc1ccccc1C(OC(=O)c1cccs1)C(=O)NCc1ccco1 (configuration not stated)		inconclusive: 17.8 µM [activator, single point]
CC1=NN(c2nc3ccccc3[nH]2)C(=O)C1Cc1ccccc1 (configuration not stated)		inconclusive: 10 µM [activator, partial curve]
O=[N+]([O-])c1ccc(C=Nc2cccc3ccccc23)s1		inconclusive: 6.31 µM [activator, single point]
CC(C)[C@H](NC(=O)OC(C)(C)C)c1nnc(S(=O)(=O)Cc2c(F)cccc2Cl)o1		inconclusive: 5.62 µM [activator, single point]
COc1ccc(-c2nc(SCC(=O)Nc3nccs3)c(-c3ccc(Cl)cc3)[nH]2)cc1		inconclusive: 25.1 µM [activator, single point]
CCCCn1c(NC(C)=O)c(C#N)c2nc3ccccc3nc21	inactive: -0.862%	
CCOC(=O)N1CCC(=NNc2nc3ccccc3s2)CC1	inactive: -0.726%	
CN1CCCC(C#CC(O)(c2ccccc2)c2ccccc2)C1 (configuration not stated)	inactive: -2.14%	
CCOC(=O)C(=CNc1ccc(Cl)cn1)C(=O)OCC	inactive: 1.89%	
COc1ccccc1C(CC(=O)c1ccccc1)CC(=O)c1ccccc1	inactive: 0.0128%	
COc1ccc(OC)c2c(C)c(C)[nH]c12		inconclusive: 35.5 µM [activator, single point]
COc1ccc(C(=O)c2sc3nc(-c4ccc(C)cc4)cc(C(F)(F)F)c3c2N)cc1		active: 1 µM
CN1CCN(CCCNC(=O)c2nnc(Cc3c(F)cccc3Cl)o2)CC1		inconclusive: 14.1 µM [activator, single point]
CC1=C/C(=C\C=C(C#N)C#N)N(C)c2ccccc21		inconclusive: 10 µM [activator, partial curve]
CCOC(=O)c1ccc2nc(C)cc(Nc3ccc(OC(C)C)cc3)c2c1		inconclusive: 35.5 µM [activator, single point]
CCOC(=O)C1=C(O)/C(=C\c2ccc(CNC(=O)C(=O)Nc3ccc(C)c(C)c3)o2)N=C1C		inconclusive: 35.5 µM [activator, single point]
Cc1ccc(NC(=O)c2ccc(Cl)cc2Cl)c(C(=O)c2ccccc2)c1	inactive: -0.523%	
CCn1cc(C(=O)O)c(=O)c2cnc(N3CCN(C(=S)Nc4ccccc4Cl)CC3)nc21	inactive: 1.03%	
CCOc1cccc(NC(=O)c2sc3nc(-c4ccc(F)cc4)ccc3c2N)c1		inconclusive: 17.8 µM [activator, single point]
c1nc2n(n1)C1=C(CCCC1)C1(CCCCC1)N2	inactive: -1.43%	
Nc1ccc2ncccc2c1N		inconclusive: 28.2 µM [activator, single point]
Cc1ccc(S(=O)(=O)N2CCCCC2)cc1NC(=O)COC(=O)Cc1ccc(Cl)cc1		inconclusive: 5.62 µM [activator, single point]
